According to patent US8735349B2, “Method for improving glucose tolerance in a diabetes type 2 patient of younger than 50 years and having postprandial plasma glucose concentration of at least 14 mmol/L” (priority 2011, dated 2014):

Experiments:
[1] = test system: obese type 2 diabetic patients younger than 50 and not adequately controlled with metformin; parameters: species or system human; conditions: in vivo
[2] = test system: obese type 2 diabetic patients younger than 50 and not adequately controlled with metformin; assay: Example 2: change in body weight and patients with ≧5% weight loss; conditions: for Body weight, observed data, Mean / Body weight, observed data, Median / Body weight, change from baseline, Mean / Body weight, change from baseline, Median: mITT population
[3] = test system: obese type 2 diabetic patients younger than 50 and not adequately controlled with metformin; assay: Example 2: treatment emergent adverse events (TEAEs)
[4] = test system: obese type 2 diabetic patients younger than 50 and not adequately controlled with metformin; assay: Example 2: HbA1c change from baseline and HbA1c responders; conditions: for HbA1c, observed data, Mean / HbA1c, observed data, Median / HbA1c, change from baseline, Mean / HbA1c, change from baseline, Median: mITT population

## N[C@@H](CC(=O)N1CCn2c(nnc2C(F)(F)F)C1)Cc1cc(F)c(F)cc1F [sitagliptin]
[1]; human
  AE form for suspected pancreatitis: Blood amylase increased: 1 (0.6%) n (%)
  AE form for suspected pancreatitis: Lipase increased: 1 (0.6%) n (%)
  Amylase ≧3 ULN, patients with at least one post-baseline PCSA: 0/161
  Lipase ≧3 ULN, patients with at least one post-baseline PCSA: 3/161 (1.9%) n/N1 (%)
  Patients with a specific adverse event form for suspected pancreatitis completed: Any: 2 (1.2%) n (%)
  patients with AE form for suspected pancreatitis completed (amylase and/or lipase above twice ULN): 1.2%
  patients with elevated lipase 3ULN: 1.9%
[1]
  cases of pancreatitis reported in the study: No case
  patients with elevated amylase 3ULN: No one
[2]; Baseline
  Body weight, observed data, Mean: 100.56 kg
  Body weight, observed data, Median: 97.30 kg
[2]; Screening
  Body weight, observed data, Mean: 100.73 kg
  Body weight, observed data, Median: 97.20 kg
[2]; Week 4
  Body weight, change from baseline, Mean: -0.53 kg
  Body weight, change from baseline, Median: -0.30 kg
  Body weight, observed data, Mean: 99.80 kg
  Body weight, observed data, Median: 97.30 kg
[2]; Week 8
  Body weight, change from baseline, Mean: -0.75 kg
  Body weight, change from baseline, Median: -0.70 kg
  Body weight, observed data, Mean: 99.17 kg
  Body weight, observed data, Median: 97.20 kg
[2]; Week 12
  Body weight, change from baseline, Mean: -0.92 kg
  Body weight, change from baseline, Median: -0.55 kg
  Body weight, observed data, Mean: 98.32 kg
  Body weight, observed data, Median: 96.55 kg
[2]; Week 16
  Body weight, change from baseline, Mean: -0.99 kg
  Body weight, change from baseline, Median: -0.80 kg
  Body weight, observed data, Mean: 98.16 kg
  Body weight, observed data, Median: 96.15 kg
[2]; Week 24 (LOCF)
  Body weight, change from baseline, Mean: -0.89 kg
  Body weight, change from baseline, Median: -0.50 kg
  Body weight, observed data, Mean: 99.43 kg
  Body weight, observed data, Median: 97.35 kg
[2]; Week 24
  Body weight, change from baseline, Mean: -0.97 kg
  Body weight, change from baseline, Median: -0.50 kg
  Body weight, observed data, Mean: 97.91 kg
  Body weight, observed data, Median: 97.00 kg
[2]; add-on to metformin, mITT
  patients with ≧5% weight loss from baseline to Week 24: 11.9%
[2]; mITT
  Body weight Change from baseline to week 24 (LOCF) Mean (SD): −0.89 (3.37) kg
  Body weight Change from baseline to week 24 (LOCF) Median: -0.50 kg
  Patients with <5% weight loss from baseline to Week 24: 141 (88.1%) n (%)
  patients with ≧5% weight loss from baseline to Week 24: 19 (11.9%) n (%)
[2]; mITT, ANCOVA
  Body weight Change from baseline to week 24 (LOCF) LS Mean (SE): −1.17 (0.304) kg
[2]; mITT, Week 24 (LOCF)
  Body weight Week 24 (LOCF) Mean (SD): 99.43 (24.00) kg
  Body weight Week 24 (LOCF) Median: 97.35 kg
[2]; mITT, baseline
  Body weight Baseline Mean (SD): 100.33 (23.65) kg
  Body weight Baseline Median: 97.15 kg
[3]; Safety population
  % of patients with TEAE: Gastroenteritis viral: 1.9%
  % of patients with TEAE: HLGT: Anaemias nonhaemolytic and marrow depression: 1.2%
  % of patients with TEAE: HLGT: Bacterial infectious disorders: 1.2%
  % of patients with TEAE: HLGT: Musculoskeletal and connective tissue disorders NEC: 4.3%
  % of patients with TEAE: HLT: Anaemias NEC: 1.2%
  % of patients with TEAE: HLT: Bacterial infections NEC: 1.2%
  % of patients with TEAE: HLT: Headaches NEC: 9.3%
  % of patients with TEAE: HLT: Hyperglycaemic conditions NEC: 1.2%
  % of patients with TEAE: HLT: Hypoglycaemic conditions NEC: 3.1%
  % of patients with TEAE: HLT: Infections NEC: 2.5%
  % of patients with TEAE: HLT: Influenza viral infections: 3.1%
  % of patients with TEAE: HLT: Musculoskeletal and connective tissue pain and discomfort: 4.3%
  % of patients with TEAE: INFECTIONS AND INFESTATIONS: 31.7%
  % of patients with TEAE: INJURY, POISONING AND PROCEDURAL COMPLICATIONS: 5.6%
  % of patients with TEAE: INVESTIGATIONS: 5.6%
  % of patients with TEAE: Influenza: 3.1%
  % of patients with TEAE: MUSCULOSKELETAL AND CONNECTIVE TISSUE DISORDERS: 6.8%
  Number of patients with TEAE: Gastroenteritis viral: 3
  Number of patients with TEAE: HLGT: Anaemias nonhaemolytic and marrow depression: 2
  Number of patients with TEAE: HLGT: Bacterial infectious disorders: 2
  Number of patients with TEAE: HLGT: Musculoskeletal and connective tissue disorders NEC: 7
  Number of patients with TEAE: HLT: Anaemias NEC: 2
  Number of patients with TEAE: HLT: Bacterial infections NEC: 2
  Number of patients with TEAE: HLT: Infections NEC: 4
  Number of patients with TEAE: HLT: Influenza viral infections: 5
  Number of patients with TEAE: HLT: Injection site reactions: 2
  Number of patients with TEAE: HLT: Joint related signs and symptoms: 3
  Number of patients with TEAE: HLT: Limb injuries NEC (incl traumatic amputation): 4
  Number of patients with TEAE: HLT: Musculoskeletal and connective tissue pain and discomfort: 7
  Number of patients with TEAE: INJURY, POISONING AND PROCEDURAL COMPLICATIONS: 9
  Number of patients with TEAE: INVESTIGATIONS: 9
  Number of patients with TEAE: Influenza: 5
  Number of patients with TEAE: Influenza like illness: 0
  Number of patients with TEAE: Injection site erythema: 0
  Number of patients with TEAE: Injection site haematoma: 2
  Number of patients with TEAE: MUSCULOSKELETAL AND CONNECTIVE TISSUE DISORDERS: 11
  Number of patients with TEAE: Musculoskeletal chest pain: 0
[3]; Safety population, on-treatment period
  Patients with any TEAE leading to death: 0 n (%)
[3]; whole study
  deaths reported in the study: No death
[4]; Baseline
  HbA1c, observed data, Mean: 8.09%
  HbA1c, observed data, Median: 8.00%
[4]; Screening
  HbA1c, observed data, Mean: 8.25%
  HbA1c, observed data, Median: 8.20%
[4]; Week 4
  HbA1c, change from baseline, Mean: −0.46%
  HbA1c, change from baseline, Median: −0.40%
  HbA1c, observed data, Mean: 7.64%
  HbA1c, observed data, Median: 7.50%
[4]; Week 8
  HbA1c, change from baseline, Mean: −0.68%
  HbA1c, change from baseline, Median: −0.60%
  HbA1c, observed data, Mean: 7.41%
  HbA1c, observed data, Median: 7.30%
[4]; Week 12
  HbA1c, change from baseline, Mean: −0.81%
  HbA1c, change from baseline, Median: −0.80%
  HbA1c, observed data, Mean: 7.26%
  HbA1c, observed data, Median: 7.20%
[4]; Week 16
  HbA1c, change from baseline, Mean: −0.79%
  HbA1c, change from baseline, Median: −0.70%
  HbA1c, observed data, Mean: 7.26%
  HbA1c, observed data, Median: 7.15%
[4]; Week 24 (LOCF)
  HbA1c, change from baseline, Mean: −0.70%
  HbA1c, change from baseline, Median: −0.70%
  HbA1c, observed data, Mean: 7.38%
  HbA1c, observed data, Median: 7.30%
[4]; Week 24
  HbA1c, change from baseline, Mean: −0.81%
  HbA1c, change from baseline, Median: −0.80%
  HbA1c, observed data, Mean: 7.21%
  HbA1c, observed data, Median: 7.20%
[4]; add-on to metformin, mITT
  patients with HbA1c≦[…] at Week 24: 26.3%
[4]; add-on to metformin, mITT, LOCF
  LS mean change from baseline to Week 24 in HbA1c: −0.72%
[4]; mITT
  HbA1c Change from baseline to week 24 (LOCF) Mean (SD): −0.70%
  HbA1c Change from baseline to week 24 (LOCF) Median: −0.70%
  Patients with HbA1c <7.0% at Week 24: 64 (40.0%) n (%)
  patients with HbA1c≦[…] at Week 24: 42 (26.3%) n (%)
[4]; mITT, ANCOVA
  HbA1c Change from baseline to week 24 (LOCF) LS Mean (SE): −0.72%
[4]; mITT, Week 24 (LOCF)
  HbA1c Week 24 (LOCF) Mean (SD): 7.38%
  HbA1c Week 24 (LOCF) Median: 7.30%
[4]; mITT, baseline
  HbA1c Baseline Mean (SD): 8.08%
  HbA1c Baseline Median: 8.00%
